Measured values published in PubChem BioAssay AID256 (DTP/NCI, 2004).
Values joined by “and” are separate entries in the source; they are usually repeats but may differ in a detail not shown here. Identical values can stand only once. This continues a long series; more values of the same kind are listed elsewhere. Inconclusive results and toxic doses are left out.

Tested on: CD2F1 mice, L1210 leukemia ip, survival T/C
Assay: NCI In Vivo Anticancer Drug Screen. Data for tumor model L1210 Leukemia (intraperitoneal) in CD2F1 (CDF1) mice
Details: higher = longer survival
Method: The antitumor activity of compounds was measured in mice bearing transplantable tumors. Survival or tumor size were measured and the results are expressed as the measurement made in the treated group (T) divided by the measurement made in the vehicle treated control group (C). The tumor model used in this assay is L1210 Leukemia (intraperitoneal) in CD2F1 (CDF1) mice

CN(Cc1cnc2nc(N)nc(N)c2n1)c1ccc(C(=O)N[C@@H](CCC(=O)O)C(=O)O)cc1
T/C (endpoint: mean survival time, dose: 0.06 mg/kg/injection, schedule: Q01DX009 (ip), vehicle: sodium bicarbonate): 101 % of control and 107 % of control
T/C (endpoint: mean survival time, dose: 0.13 mg/kg/injection, schedule: Q01DX009 (ip), vehicle: sodium bicarbonate): 105 % of control and 110 % of control
T/C (endpoint: mean survival time, dose: 0.18 mg/kg/injection, schedule: Q01DX009 (ip), vehicle: sodium bicarbonate): 104 % of control and 108 % of control
T/C (endpoint: mean survival time, dose: 0.19 mg/kg/injection, schedule: Q01DX009 (ip), vehicle: other): 109 % of control
T/C (endpoint: mean survival time, dose: 0.5 mg/kg/injection, schedule: Q01DX005 (ip), vehicle: sodium bicarbonate): 109 % of control
T/C (endpoint: mean survival time, dose: 0.75 mg/kg/injection, schedule: Q01DX015 (ip), vehicle: sodium bicarbonate): 197 % of control
T/C (endpoint: mean survival time, dose: 1.0 mg/kg/injection, schedule: Q02DX005 (ip), vehicle: sodium bicarbonate): 190 % of control
T/C (endpoint: mean survival time, dose: 1.0 mg/kg/injection, schedule: Q03HX024 (ip), vehicle: saline): 109 % of control
T/C (endpoint: mean survival time, dose: 1.2 mg/kg/injection, schedule: Q04DX003 (ip), vehicle: saline): 112 % of control
T/C (endpoint: mean survival time, dose: 1.25 mg/kg/injection, schedule: Q04DX003 (ip), vehicle: sodium bicarbonate): 96 % of control
T/C (endpoint: mean survival time, dose: 1.5 mg/kg/injection, schedule: Q01DX009 (ip), vehicle: alkali diluted with saline): 184 % of control
T/C (endpoint: mean survival time, dose: 2.0 mg/kg/injection, schedule: Q01DX009 (ip), vehicle: saline): 108 % of control
T/C (endpoint: mean survival time, dose: 2.0 mg/kg/injection, schedule: Q03HX008 (ip), vehicle: saline): 95 % of control
T/C (endpoint: mean survival time, dose: 3.0 mg/kg/injection, schedule: Q01DX009 (ip), vehicle: alkali diluted with saline): 88 % of control
T/C (endpoint: mean survival time, dose: 3.0 mg/kg/injection, schedule: Q01DX009 (ip), vehicle: other): 95 % of control
T/C (endpoint: mean survival time, dose: 3.0 mg/kg/injection, schedule: Q02DX005 (ip), vehicle: sodium bicarbonate): 105 % of control
T/C (endpoint: mean survival time, dose: 3.6 mg/kg/injection, schedule: Q01DX009 (ip), vehicle: sodium bicarbonate): 106 % of control
T/C (endpoint: mean survival time, dose: 4.0 mg/kg/injection, schedule: Q01DX005 (ip), vehicle: sodium bicarbonate): 95 % of control
T/C (endpoint: mean survival time, dose: 4.0 mg/kg/injection, schedule: Q01DX009 (ip), vehicle: saline): 86 % of control
T/C (endpoint: mean survival time, dose: 5.0 mg/kg/injection, schedule: Q01DX009 (ip), vehicle: sodium bicarbonate): 112 % of control
T/C (endpoint: mean survival time, dose: 6.1 mg/kg/injection, schedule: Q01DX009 (ip), vehicle: saline): 100 % of control
T/C (endpoint: mean survival time, dose: 8.0 mg/kg/injection, schedule: Q01DX001 (ip), vehicle: saline): 100 % of control
T/C (endpoint: mean survival time, dose: 8.0 mg/kg/injection, schedule: Q04DX003 (ip), vehicle: sodium bicarbonate): 195 % of control
T/C (endpoint: mean survival time, dose: 10.0 mg/kg/injection, schedule: Q01DX005 (ip), vehicle: sodium bicarbonate): 93 % of control
T/C (endpoint: mean survival time, dose: 10.0 mg/kg/injection, schedule: Q04DX004 (ip), vehicle: sodium bicarbonate): 194 % of control
T/C (endpoint: mean survival time, dose: 12.0 mg/kg/injection, schedule: Q01DX009 (ip), vehicle: sodium bicarbonate): 105 % of control
T/C (endpoint: mean survival time, dose: 12.2 mg/kg/injection, schedule: Q01DX009 (ip), vehicle: saline): 90 % of control
T/C (endpoint: mean survival time, dose: 15.0 mg/kg/injection, schedule: Q04DX004 (ip), vehicle: sodium bicarbonate): 206 % of control
T/C (endpoint: mean survival time, dose: 18.4 mg/kg/injection, schedule: Q04DX003 (ip), vehicle: saline): 185 % of control
T/C (endpoint: mean survival time, dose: 20.0 mg/kg/injection, schedule: Q04DX004 (ip), vehicle: sodium bicarbonate): 184 % of control and 208 % of control and 237 % of control
T/C (endpoint: mean survival time, dose: 25.0 mg/kg/injection, schedule: Q04DX004 (ip), vehicle: sodium bicarbonate): 194 % of control and 198 % of control
T/C (endpoint: mean survival time, dose: 30.0 mg/kg/injection, schedule: Q04DX003 (ip), vehicle: sodium bicarbonate): 191 % of control
T/C (endpoint: mean survival time, dose: 40.0 mg/kg/injection, schedule: Q01DX005 (ip), vehicle: sodium bicarbonate): 86 % of control
T/C (endpoint: mean survival time, dose: 60.0 mg/kg/injection, schedule: Q04DX003 (ip), vehicle: sodium bicarbonate): 90 % of control and 107 % of control
T/C (endpoint: mean survival time, dose: 80.0 mg/kg/injection, schedule: Q04DX003 (ip), vehicle: sodium bicarbonate): 106 % of control
T/C (endpoint: median survival time, dose: 0.15 mg/kg/injection, schedule: Q06HX024 (ip), vehicle: saline): 101 % of control
T/C (endpoint: median survival time, dose: 0.19 mg/kg/injection, schedule: Q01DX009 (ip), vehicle: sodium bicarbonate): 110 % of control
T/C (endpoint: median survival time, dose: 0.3 mg/kg/injection, schedule: Q06HX024 (ip), vehicle: saline): 108 % of control
T/C (endpoint: median survival time, dose: 1.0 mg/kg/injection, schedule: Q01DX009 (ip), vehicle: saline): 204 % of control
T/C (endpoint: median survival time, dose: 1.44 mg/kg/injection, schedule: Q01DX009 (ip), vehicle: sodium bicarbonate): 191 % of control
T/C (endpoint: median survival time, dose: 2.0 mg/kg/injection, schedule: Q01DX009 (ip), vehicle: saline): 243 % of control
T/C (endpoint: median survival time, dose: 2.4 mg/kg/injection, schedule: Q01DX009 (ip), vehicle: sodium bicarbonate): 198 % of control
T/C (endpoint: median survival time, dose: 2.5 mg/kg/injection, schedule: Q01DX009 (ip), vehicle: sodium bicarbonate): 186 % of control
T/C (endpoint: median survival time, dose: 3.0 mg/kg/injection, schedule: Q01DX009 (ip), vehicle: sodium bicarbonate): 185 % of control and 215 % of control
T/C (endpoint: median survival time, dose: 3.5 mg/kg/injection, schedule: Q01DX009 (ip), vehicle: sodium bicarbonate): 210 % of control
T/C (endpoint: median survival time, dose: 6.25 mg/kg/injection, schedule: Q01DX001 (ip), vehicle: sodium bicarbonate): 106 % of control
T/C (endpoint: median survival time, dose: 9.0 mg/kg/injection, schedule: Q04DX003 (ip), vehicle: sodium bicarbonate): 185 % of control
T/C (endpoint: median survival time, dose: 15.0 mg/kg/injection, schedule: Q04DX003 (ip), vehicle: sodium bicarbonate): 192 % of control
T/C (endpoint: median survival time, dose: 43.0 mg/kg/injection, schedule: Q01DX001 (ip), vehicle: sodium bicarbonate): 112 % of control
